Assay results reported in patent US20220411514A1, “ANTI-GAL3 ANTIBODIES AND METHODS OF USE FOR INSULIN RESISTANCE” (TrueBinding, Inc., priority 2021, published 2022).

Target: T1, Human Gal3 peptides (Homo sapiens, UniProt P17931)
T1 construct: purchased LifeTein custom order
Assay: Gal3 peptide binding ELISA (Example 8)
Settings: antibody 5 μg/mL
Protocol: Gal3 peptide binding activity of additional exemplary anti-Gal3 antibodies was assessed with the same peptides as described in FIG. 18 (SEQ ID NOs: 3-26). Human Gal3 peptides (LifeTein, custom order) and human Gal3 proteins (R&D Systems, 8259-GA; TrueBinding, QCB200349) were diluted in PBS (Corning, 21-030-CM) to concentrations of at least 100 μg/mL (peptides) or 1 μg/mL (proteins), and added to the wells of several 96-well ELISA plates (Thermo Fisher, 44-2404-21). After incubating the plates at 4° C. overnight, the plates were washed three times with PBST (PBS with 0.05% Tween 20 [VWR, 0777]). The plates were then blocked for an hour with 2% BSA (EMD Millipore, 126609) in PBST at room temperature with gentle rocking. Thereafter, the 2% BSA in PBST was discarded and Gal3-binding antibodies (reformatted hIgG4 [S228P]) were diluted in 2% BSA in PBST to concentrations of 5 μg/mL and added to the wells. The plates were incubated for an hour at room temperature with gentle rocking and then washed three times with PBST. Afterwards, Peroxidase AffiniPure F(ab′)2 Fragment Goat Anti-Human IgG (H+L) polyclonal antibody (Jackson ImmunoResearch, 109-036-003), was diluted in 2% BSA in PBST (1:4000) and added to the wells. The plates were incubated for 1 hour at room temperature with gentle rocking and then washed three times with PBST. TMB substrate (Thermo Scientific, 34029) was then added to each well. The reaction was stopped with 1M HCl (JT Baker, 5620-02) and read using a plate reader (Molecular Devices) at absorbance of 450 nm.

Molecule	binding to Gal3 peptide 1 (SEQ ID NO: 3)	binding to Gal3 peptide 2 (SEQ ID NO: 4)	binding to Gal3 peptide 7 (SEQ ID NO: 9)	binding to Gal3 peptide 8 (SEQ ID NO: 10)
F846TC.14E4: anti-Gal3 antibody (antibody, F846TC.14E4 heavy chain peptide sequence; F846TC.14E4 light chain peptide sequence, anti-Gal3 antibody) heavy: QVTLKESGPGILQPSQTLSLTCSFSGFSLSTSGMGVGWIRQPSGKGLEWLAHIWWDDDKYYNTALKSGLTISKDASKNQVFLKIASMDTADTATYYCARNLYDGSYGYYAMDYWGQGTSVTVSSASTKGPSVFPLAPCSRSTSESTAALGCLVKDYFPEPVTVSWNSGALTSGVHTFPAVLQSSGLYSLSSVVTVPSSSLGTKTYTCNVDHKPSNTKVDKRV[in this place human IgG4 Fc with S228P (EU numbers)] light: DIVMTQAAFSNPVTLGTSASISCRSSKSLLHTNGITFLYWYLQKPGQSPQPLIYQMSNLASGVPDRFSSSGSGTDFTLRISRVEAEDVGVYYCAQNLELPWTFGGGTKLEINRTVAAPSVFIFPPSDEQLKSGTASVVCLLNNFYPREAKVQWKVDNALQSGNSQESVTEQDSKDSTYSLSSTLTLSKADYEKHKVYACEVTHQGLSSPVTKSFNRGEC	–	bound	–	–
F847C.4B10: anti-Gal3 antibody (antibody, F847C.4B10 heavy chain peptide sequence; F847C.4B10/847.14H4 light chain peptide sequence, anti-Gal3 antibody) heavy: EVQLVETGGGLVKPGGSLKLSCAASGFTFSSYAMSWVRQTPEKRLEWVASISSGGSTYYPDSVKGRFTISRDNARNILYLQMSSLRSEDTAMYYCTRFTTVVEMDYWGQGTSVTVSSASTKGPSVFPLAPCSRSTSESTAALGCLVKDYFPEPVTVSWNSGALTSGVHTFPAVLQSSGLYSLSSVVTVPSSSLGTKTYTCNVDHKPSNTKVDKRV[in this place human IgG4 Fc with S228P (EU numbers)] light: QAVVTQESALTTSPGETVTLTCRSSTGAVTTSNYANWVQEKPDHLFTGLIGGTNNRAPGVPARFSGSLIGDKAALTITGAQTEDEAIYFCALWYSNHLVFGGGTKLTVLRTVAAPSVFIFPPSDEQLKSGTASVVCLLNNFYPREAKVQWKVDNALQSGNSQESVTEQDSKDSTYSLSSTLTLSKADYEKHKVYACEVTHQGLSSPVTKSFNRGEC	bound	–	–	–
F847C.26F5: anti-Gal3 antibody (antibody, F847C.26F5 heavy chain peptide sequence; F847C.26F5 light chain peptide sequence, anti-Gal3 antibody) heavy: QIQLVQSGPEVKKPGETVKISCKASGYIFTNYGMNWVKQAPGKGLKWMGWINTYTGEPTYTDDFKGRFAFSLETSASTAYLQINNLKNEDTATYFCAKFGNYVGAMDYWGQGTSVTVSSASTKGPSVFPLAPCSRSTSESTAALGCLVKDYFPEPVTVSWNSGALTSGVHTFPAVLQSSGLYSLSSVVTVPSSSLGTKTYTCNVDHKPSNTKVDKRV[in this place human IgG4 Fc with S228P (EU numbers)] light: EIKMNQSPSSLSASLGDTITITCHASQNINVWLSWYQQKPGNIPKLLIYKASNLHTGVPSRFSGSGSGTGFTLTISSLQPEDIATYYCQQGQSYPYTFGGGTKLELKRTVAAPSVFIFPPSDEQLKSGTASVVCLLNNFYPREAKVQWKVDNALQSGNSQESVTEQDSKDSTYSLSSTLTLSKADYEKHKVYACEVTHQGLSSPVTKSFNRGEC	bound	–	bound	–
F847C.10B9: anti-Gal3 antibody (antibody, F847C.10B9 heavy chain peptide sequence; F847C.10B9 light chain peptide sequence, anti-Gal3 antibody) heavy: QIQLVQSGPEVKKPGETVKISCKASGYIFTNYGMNWVKQAPGKGLKWMGWINTYTGEPTYTDDFKGRFAFSLETSASTAYLQINNLKNEDTATYFCAKFGNYVGAMDYWGQGTSVTVSSASTKGPSVFPLAPCSRSTSESTAALGCLVKDYFPEPVTVSWNSGALTSGVHTFPAVLQSSGLYSLSSVVTVPSSSLGTKTYTCNVDHKPSNTKVDKRV[in this place human IgG4 Fc with S228P (EU numbers)] light: DIRMTQSPSSLSASLGDTITITCHASQNINVWLSWYQQKPGNIPKLLIYKASNLHTGVPSRFSGSGSGTGFTLTISSLQPEDIATYYCQQGQSYPYTFGGGTKLELKRTVAAPSVFIFPPSDEQLKSGTASVVCLLNNFYPREAKVQWKVDNALQSGNSQESVTEQDSKDSTYSLSSTLTLSKADYEKHKVYACEVTHQGLSSPVTKSFNRGEC	bound	–	bound	–
F847C.12F12: anti-Gal3 antibody (antibody, F847C.12F12 heavy chain peptide sequence; F847C.12F12 light chain peptide sequence, anti-Gal3 antibody) heavy: QIQLVQSGPELKKPGETVKISCKASGYTFTNYGMNWVKQAPGKGLKWMGWINTYTGEPTYVDDFKGRFAFSLETSASTAYLRINNLKNEDTATYFCAKFGNYVGAMDYWGQGTSVTVSSASTKGPSVFPLAPCSRSTSESTAALGCLVKDYFPEPVTVSWNSGALTSGVHTFPAVLQSSGLYSLSSVVTVPSSSLGTKTYTCNVDHKPSNTKVDKRV[in this place human IgG4 Fc with S228P (EU numbers)] light: DIQVIQSPSSLSASLGDTITITCHASQNINVWLSWYQQKPGNIPKLLIYKASNLHTGVPSRFSGSGSGTGFTLTISSLQPEDIATYYCQQGQSYPYTFGGGTKLELKRTVAAPSVFIFPPSDEQLKSGTASVVCLLNNFYPREAKVQWKVDNALQSGNSQESVTEQDSKDSTYSLSSTLTLSKADYEKHKVYACEVTHQGLSSPVTKSFNRGEC	bound	–	bound	–

Now from value to molecule:

binding to Gal3 peptide 1 (SEQ ID NO: 3)	binding to Gal3 peptide 2 (SEQ ID NO: 4)	binding to Gal3 peptide 7 (SEQ ID NO: 9)	binding to Gal3 peptide 8 (SEQ ID NO: 10)	Molecule
bound	–	–	–	F846TC.7F10: anti-Gal3 antibody (antibody, F846TC.7F10 heavy chain peptide sequence; F846TC.7F10 light chain peptide sequence, anti-Gal3 antibody) heavy: EVQLVESGGDLVKPGGSLKLSCAASGFTFSNYGLSWIRQTPDKRLEWVATISSGGSYTYYPDSVKGRFTISRDSAKNTLYLQMSSLKSEDTAMYYCARHAHYYGVSPYYFDYWGQGTCLTVSSASTKGPSVFPLAPCSRSTSESTAALGCLVKDYFPEPVTVSWNSGALTSGVHTFPAVLQSSGLYSLSSVVTVPSSSLGTKTYTCNVDHKPSNTKVDKRV[in this place human IgG4 Fc with S228P (EU numbers)] light: DIVMTQSPSSLAMSVGQKVTMSCKSSQSLLNSSNQKNYLAWYQQKPGQSPKLLVYFASTRESGVPDRFIGSGSGTDFTLTISSVQAEDLADYFCQQHYSTPYTFGGGAKLEIKRTVAAPSVFIFPPSDEQLKSGTASVVCLLNNFYPREAKVQWKVDNALQSGNSQESVTEQDSKDSTYSLSSTLTLSKADYEKHKVYACEVTHQGLSSPVTKSFNRGEC
bound	–	bound	bound	F846TC.14A2: anti-Gal3 antibody (antibody, F846TC.14A2 heavy chain peptide sequence; F846TC.14A2 light chain peptide sequence, anti-Gal3 antibody) heavy: QIQLVQSGPELKKPGETVKISCKASGYTFTNYGMNWVKQAPGKGLKWMGWINTYTGEPTYAGDLKGRFAFSLETSASTAYLQINNLKNEDTATYFCVRYTMDYWGQGTSVTVSSASTKGPSVFPLAPCSRSTSESTAALGCLVKDYFPEPVTVSWNSGALTSGVHTFPAVLQSSGLYSLSSVVTVPSSSLGTKTYTCNVDHKPSNTKVDKRV[in this place human IgG4 Fc with S228P (EU numbers)] light: QAVVTQESALTTSPGETVTLTCRSSTGAVTTSNYANWVQEKPDHLFTGLIGGINNRVPGVPARFSGSLIGDKAALTITGAQTEDEAIYFCALWYSNHWVFGGGTKLTVLRTVAAPSVFIFPPSDEQLKSGTASVVCLLNNFYPREAKVQWKVDNALQSGNSQESVTEQDSKDSTYSLSSTLTLSKADYEKHKVYACEVTHQGLSSPVTKSFNRGEC
bound	–	–	–	F846C.1H5: anti-Gal3 antibody (antibody, F846C.1H5 heavy chain peptide sequence; F846C.1H5 light chain peptide sequence, anti-Gal3 antibody) heavy: EVQLLESGGGLVKPGGSLKLSCAASGFTFSSYAMSWVRQTPEKRLEWVASISSGGDTYYPDSVKGRFTISRDNARNILYLQMSSLRSEDTAMYYCASYGNSLFDYWGQGTTLTVSSASTKGPSVFPLAPCSRSTSESTAALGCLVKDYFPEPVTVSWNSGALTSGVHTFPAVLQSSGLYSLSSVVTVPSSSLGTKTYTCNVDHKPSNTKVDKRV[in this place human IgG4 Fc with S228P (EU numbers)] light: DVVMTQTPLSLPVSLGDQASISCRSSQSLVHNSGNTYLHWYLQRPGQSPNLLIYKVSNRFSGVPDRFSGSGSGTDFTLKISRVAAEDLGVYFCSQSTHVPPTFGGGTKLEIKRTVAAPSVFIFPPSDEQLKSGTASVVCLLNNFYPREAKVQWKVDNALQSGNSQESVTEQDSKDSTYSLSSTLTLSKADYEKHKVYACEVTHQGLSSPVTKSFNRGEC
